Source: PubChem BioAssay AID1240 (Sanford-Burnham Center for Chemical Genomics, 2008)
Screen size: about 50,000 compounds; about 800 (1.6%) showed an effect of 50% or more. This is one part of the list.

biological target: Bcl-2-like protein 10 (Homo sapiens) (UniProt Q9HD36); experiment: TR3 peptide-Bcl-B binding displacers, biochemical primary FP assay, phenotype converters (AID 1240); conditions: GST-Bcl-B / FITC-TR3 peptide fluorescence polarization; stronger effect = higher value; compound at 3.75 mg/L;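 further: 0% = Bcl-B with tracer peptide and DMSO and 100% = tracer peptide lacking Bcl-B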
UniProt Q9HD36, sequence (Q9HD36 whole entry, looked up): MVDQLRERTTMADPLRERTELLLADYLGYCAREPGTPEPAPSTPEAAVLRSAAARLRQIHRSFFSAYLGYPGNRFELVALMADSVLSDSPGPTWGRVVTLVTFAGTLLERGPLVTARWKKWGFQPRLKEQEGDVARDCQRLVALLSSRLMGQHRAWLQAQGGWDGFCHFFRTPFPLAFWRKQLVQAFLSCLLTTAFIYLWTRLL

SMILES	displacement [%]
CCC(=O)N1c2ccccc2NC2=C(C(=O)CC(C)(C)C2)C1c1ccccn1 (stereo unspecified)	-11.6
Cc1onc(-c2ccccc2)c1C(=O)NCC(C)C	-7.2
COC(=O)C1=C(C)N(C)C(C)=C(C(=O)OC)C1c1cccc(C(F)(F)F)c1	-15.8
CCc1ccc(/C=C2/SC(=S)N(CC(=O)O)C2=O)cc1	2.5
Cc1ccc(NC(=O)CSc2cc(Cl)ccc2Cl)cc1	19.4
Cc1nc2ccccn2c1C(=O)N/N=C/c1ccccc1	-0.3
Cc1ccc(/C=C2/SC(=S)N(CCC(=O)O)C2=O)o1	-27.7
Cc1cc2c(cc1C)C(=O)NC(C)(C)C2	8.6
Cc1ccc(S(=O)(=O)NC(C)(C)CN2CCOCC2)cc1	-1.9
CCN(CC)c1ccc(N2C(=O)/C(=C\c3ccco3)SC2=S)cc1	8.6
Cc1ccccc1C(=O)Nc1ccc(Oc2ccc(NC(=O)c3ccccc3C)cc2)cc1	4.5
Cc1ccc(Nc2nc3nonc3nc2NNc2ccccc2)cc1Cl	-11.9
c1ccc(C2=NNC3(CCCCCCC3)S2)cc1	-10.3
Clc1ccc(C2=NN(c3ccccc3)CC2)cc1	-3.3
COc1ccccc1NC(=O)CN(c1ccccc1C)S(C)(=O)=O	-4.1
CC1CCc2c(sc(NC(=O)c3cc([N+](=O)[O-])ccc3Cl)c2C(N)=O)C1 (stereo unspecified)	27.3
CSc1ccccc1NC(=O)CSc1nc2ccccc2[nH]1	3.8
N/C(Cc1ccc([N+](=O)[O-])cc1)=N\OC(=O)c1ccccc1Br	5.5
O=C1c2ccccc2CCC1C1(O)C(=O)Nc2ccc(Br)cc21 (stereo unspecified)	-10.2

SMILES	displacement [%]
CC1CCC/C(=N\NC(=O)Nc2ccccc2)C1 (stereo unspecified)	26.8
O=C(CSc1ccccc1C(=O)O)c1ccc(F)cc1	-3.2
CC(=O)n1cc(Nc2cccc([N+](=O)[O-])c2)c2ccccc21	-5.5
O=S(=O)(c1ccc(Cl)cc1)n1cccc1	6.8
COc1ccc(-c2cc3cc(OC)c(OC)cc3c(-c3ccccc3Cl)n2)cc1OC	1.2
O=C(CSc1nc2ccc([N+](=O)[O-])cc2s1)Nc1ccc2ccccc2c1	2.2
O=C1N/C(=N\Nc2ccccc2)S/C1=C\c1ccc(Cl)cc1Cl	5.2
COc1ccc(CC(=O)Nc2ccc3c(c2)Cc2ccccc2-3)cc1OC	-7.7
CN(C)c1ccc(/C=N/N=C2/SC(CC(=O)O)C(=O)N2c2ccc(O)cc2)cc1 (stereo unspecified)	10.8
Cc1ccc(CSc2nnc(-c3ccco3)o2)c(C)c1	-8.7
CCN(CC)c1nc(N)nc(NS(=O)(=O)c2ccc(Cl)cc2)n1	2.5
CC1=C(C(=O)OCCC#N)C(c2cc3c(cc2Br)OCO3)NC(=O)N1 (stereo unspecified)	19.9
Cc1ccccc1C(=O)Nc1cccc(Cl)c1	-4.6
O=C(NCCOCc1ccccc1)c1ccc(Cl)cc1Cl	14.2
COC(=O)c1c(-c2ccc(OC)cc2)csc1N	5.7
COC(=O)c1cn(C(=O)OC)c2ccccc12	11.6
CCOC(=O)c1c(N2C(=O)C3CC(C)=C(C)CC3C2=O)sc(C)c1C (stereo unspecified)	-10.4
COC(=O)C1C(=O)N(C)C(c2ccccc2)C1C(=O)OC (stereo unspecified)	8.4
COc1cc(Br)cc(/C=N/NC(=O)Cn2c3ccccc3c(=O)c3ccccc32)c1O	-2.8

SMILES	displacement [%]
COC(=O)c1cc(NS(=O)(=O)c2c(C)cc(C)cc2C)cc(C(=O)OC)c1	12.3
Cc1ccc(C(C)C)c(OCC(=O)Nc2ccc(Cl)cn2)c1	-2.4
Cc1ccc(O)c(NC(=O)c2ccc(-c3ccccc3)cc2)c1	12.4
COc1cc(/C=C2/SC(=S)N(CC(=O)N3CCOCC3)C2=O)cc(OC)c1OC	13.2
CCN(CC)c1ccc(NC(=O)c2cc(Br)ccc2OC)cc1	18.5
CC(Oc1ccc(Cl)cc1)C(=O)NN (stereo unspecified)	8.9
O=C(c1cccc([N+](=O)[O-])c1)N1N=C(c2ccccc2)CC1(O)C(F)(F)F (stereo unspecified)	16.2
Cc1ccc(/C=C(/NC(=O)c2ccccc2I)C(=O)O)o1	8.2
O=[N+]([O-])c1cc(C(F)(F)F)ccc1Sc1nnnn1-c1ccccc1	-6
Cc1ccc(-c2cc(C(F)(F)F)n3ncc(C(=O)N4CCN(c5ccc(F)cc5)CC4)c3n2)cc1	11.4
Cc1nnc(N/N=C\c2ccc(C(F)(F)F)cc2)[nH]c1=O	-8.3
Cc1cc(Cl)ccc1OCC(=O)Nc1cc(-c2nc3ccccc3o2)ccc1Cl	8.9
CC(C)(CO)N=C1NS(=O)(=O)c2ccccc21	12.1
CCOc1ccc(C(=O)Nc2ccc(O)c(-c3nc4ccccc4s3)c2)cc1Cl	6.3
COc1ccc(C2SCC(=O)N2CCc2ccc(OC)c(OC)c2)c(OC)c1 (stereo unspecified)	-6.4
C=CCNC(=O)C(=O)NC1CCCCC1	17.8
CCOC(=O)c1c(NC(=O)CC2Nc3ccccc3NC2=O)sc2c1CCCC2 (stereo unspecified)	130
COc1cc(Br)c(-c2cc3c(ccc4ccccc43)oc2=O)cc1OC	0
